Data on 97 compounds can be found in PubChem BioAssay AID1956 (SRMLSC, 2009).

The list shows a part of the results. Further columns of the screen follow, without active or inactive calls.

The nature of this experiment: compounds boosting herpes simplex virus growth – fold increase, host cell viability (AID 1956). Also: tested in PC3 cells. The following applies: HSV replication augmentation in cells; fold increase: measured here: primary screen fold increase 10 uM, at 10 µM, stronger effect = higher value; viability: measured here: host cell viability series, at 25 µM, stronger effect = lower value.
As for `Oc1cccc(Nc2nc(O)c(/C=C3\C=Nc4ccccc43)s2)c1`, the fold increase is 1.66 and the viability amounted to 79.3%.
For `O=C1CCCC2=C1C(c1ccccc1)NC(=S)N2` (configuration not stated) the same measures were 1.33 and 96%.
The corresponding values for `COc1ccc(C(CC(=O)O)NC(=O)COc2ccccc2)cc1OC` (configuration not stated) are 1.32 and 100%.
The corresponding values for `CC(=O)/C(C#N)=C1\NC(=O)C(Cc2ccc(C)c(C)c2)S1` (configuration not stated) are 1.77 and 82.4%.
For `Cc1cccc(NN=C2c3ccccc3-c3ccccc32)c1`, the fold increase was 1.36 and the viability was determined as 93.3%.
For `CN1CCS/C1=C\C=C1/SC(=S)N(CC(=O)O)C1=O` the same measures were 2.44 and 88.1%.
The corresponding values for `CCN(CC)c1ccc2c(c1)OC(N)=C(C#N)C2c1cccnc1` (configuration not stated) are 2.58 and 40.4%.
The corresponding values for `CC(C)(C(=O)c1ccccc1)/[N+]([O-])=C/c1ccccc1F` are 1.35 and 93%.
`CC(NC(=O)COc1ccc([N+](=O)[O-])cc1)c1ccccc1` (configuration not stated): the fold increase was 1.38 and the viability turned out to be 94.2%.
Compound `COc1ccc(CCNc2nc(-c3sc(N)nc3C)cs2)cc1OC` showed a fold increase of 1.24.
As to `O=C(NCc1ccco1)c1nc2c(nnn2Cc2cccc(Cl)c2)c(=O)[nH]1`, the fold increase was 1.37 and the viability was 112%.
As for `CCc1cccc(CC)c1-n1c(-c2cccnc2)n[nH]c1=S`, the fold increase came out at 1.32.
Take `CC(=O)c1c(C)n(CCO)c2ccc(O)cc12`: the fold increase is 1.35 and the viability was 89.2%.
The corresponding values for `N#Cc1c(NC(=O)c2ccncc2)sc2c1CCC2` are 1.33 and 92.5%.
The compound `O=c1c(O)c(-c2cccs2)oc2ccc(Cl)cc12` displayed a fold increase of 7.26.
On to `CSc1nsc(/C=C/Nc2ccc(Cl)cc2)c1C#N`, for which the fold increase turned out to be 1.88 and the viability came to 89.4%.
For `O=C(/C=C/Nc1ccc(F)cc1F)c1cccs1` the same measures were 1.34 and 94%.
The corresponding values for `Cc1cc(C)n2nc(C(=O)NC(c3ccccc3)c3ccccc3)nc2n1` are 1.36 and 92.5%.
Turning to `COc1ccc(C2CC(c3ccccc3)=NN2C(=O)COC(=O)c2cccnc2)cc1` (configuration not stated), the fold increase is 1.38 and the viability worked out at 103%.
The corresponding values for `CC(=O)c1cc(NC(=O)c2cccc(C(F)(F)F)c2)c(=O)oc1/C=C/N(C)C` are 1.51 and 93.4%.
The corresponding values for `O=c1c(O)cccc2cc(O)c(O)c(O)c12` are 1.66 and 97.4%.
Compound `CN1C(=O)C(N=Nc2ccccc2C(=O)O)N(C)C1=S` (configuration not stated) came in with a fold increase of 1.65.
As for `O=c1ccc2ccc(Oc3ccc(Cl)cc3[N+](=O)[O-])cc2o1`, the fold increase came out at 1.79 and the viability was found to be 96.3%.
For `CC(=O)Nc1ccc(S(=O)(=O)Oc2ccccc2N2CCCCC2)cc1` the same measures were 1.83 and 86%.
In the case of `CCCCN1C(=O)/C(=C/C=C2\SCCN2C)SC1=S`, the fold increase came out at 3.9 and the viability was 89.9%.
For `COCC[N+]1(C)CCCCC1` the same measures were 1.36 and 101%.
For `COc1cccc(C(=O)N2CCN(CCCc3ccccc3)CC2)c1OC` the same measures were 1.42 and 94.4%.
`COc1ccccc1C1C=C(c2ccc(Cl)cc2)Nc2nc(NS(C)(=O)=O)nn21` (configuration not stated): the fold increase is 2.8 and the viability is 94.6%.
For `COc1c(O)cccc1-c1nnn(CCC(=O)OCC(=O)c2ccccc2)n1` the same measures were 1.58 and 99.9%.
For `O=C1CCC(=O)N1c1cccc(-c2nc3ccccc3o2)c1` the same measures were 1.43 and 95.3%.
For `CCCCc1ccc(-c2csc(/C(C#N)=C/c3ccco3)n2)cc1`, the fold increase is 1.38 and the viability was determined as 97%.
For `CCOc1cc(/C=C2\SC(=S)N(NC(=O)c3cccnc3)C2=O)ccc1O` the same measures were 3.78 and 97.5%.
For `O=C1/C(=C/C=C/c2ccccc2)Oc2c1ccc(O)c2CN1CCN(CCO)CC1` the same measures were 2.24 and 93.1%.
Consider `COc1ccc(NC(=O)c2sc3nc(-c4cccnc4)ccc3c2N)cc1OC`, for which the fold increase was 1.75 and the viability came out at 88.4%.
Regarding `N#CC(=C=[N-])c1nc2ccccc2nc1-[n+]1ccccc1`, the fold increase was 1.32.
Take `NC(=O)C1CCN(c2c([N+](=O)[O-])cc(C(F)(F)F)cc2[N+](=O)[O-])CC1`: the fold increase was 1.34 and the viability is 94.9%.
For `O=C(N/N=C/c1ccco1)Nc1ccccc1`, the fold increase turned out to be 1.41 and the viability is 96.5%.
The corresponding values for `COc1ccc(C)cc1NS(=O)(=O)c1cc(C)ccc1C` are 1.7 and 89.7%.
For `S=C(Nc1ccccc1Oc1ccccc1)Nc1cccc(Cl)c1Cl` the same measures were 1.37 and 96.8%.
For `Cc1ccc(-c2nnn(CC(=O)N(c3cccc(F)c3)C(C(=O)NC3CCCC3)c3ccco3)n2)o1` (configuration not stated) the same measures were 1.42 and 105%.
Turning to `Cc1cc(C)c[n+](-c2[nH]c(=O)sc2/C=N/NC([S-])=Nc2ccccc2)c1`, the fold increase stood at 2.66 and the viability was determined as 90.3%.
As to `O=C(CSCc1ccccc1)NNC(=S)Nc1cccc(Cl)c1Cl`, the fold increase came to 1.19.
With `Cc1nnc(SCc2cnc(-c3ccc(C(C)C)cc3)s2)n1C`, the fold increase came to 1.33 and the viability came out at 85.5%.
For `O=C(N/N=C/c1c(O)n(-c2ccccc2Cl)c(=O)c2ccccc12)c1cccnc1` the same measures were 1.8 and 70.8%.
The corresponding values for `Cc1cc2c(c(=O)o1)C(CC(C)C)C(C#N)=C(N)O2` (configuration not stated) are 1.35 and 102%.
Regarding `CCCN1C(=O)/C(=C/c2c(NCCCOC(C)C)nc3c(C)cccn3c2=O)SC1=S`, the fold increase worked out at 2.56 and the viability was 89.7%.
The corresponding values for `O=S(=O)(c1ccccc1)c1cc(O)ccc1O` are 1.37 and 97.2%.
Take `CCOc1ccc(N=C2NC(=O)S/C2=C\c2ccc(O)cc2)cc1`: the fold increase was 1.99 and the viability came out at 89.9%.
The corresponding values for `CSc1nsc(/C=C/Nc2ccc(F)cc2F)c1C#N` are 1.64 and 97.1%.
With `N#Cc1c(NC(=S)NC(=O)c2ccccc2)sc2c1CCN(CCc1ccccc1)C2`, the fold increase stood at 5.39.
On the same count and under the same terms, the same measure for `N#C/C(=C\c1ccccn1)c1nc2ccccc2s1`: 7.95.
On to `Cc1cc(=O)oc(C)c1C(=O)Nc1ccc2ncccc2c1`, for which the fold increase was 1.58 and the viability was 101%.
For `CCOC(=O)C1=C(C)N=c2s/c(=C\c3cccn3C)c(=O)n2C1c1cccc(OC)c1OC` (configuration not stated), the fold increase was 2.11 and the viability was found to be 80.2%.
The corresponding values for `COc1ccc(NS(=O)(=O)c2cc([N+](=O)[O-])ccc2N/N=C\c2c(C)[nH]c3ccccc23)cc1` are 1.18 and 84.9%.
Take `CCCCOCCCn1c(-c2ccco2)nc2nc3ccccc3nc21`: the fold increase was 1.45 and the viability was 92.2%.
`Cc1nnc(-c2ccccc2)c(=O)n1/N=C/c1c(O)ccc2ccccc12` came in with a fold increase of 1.97.
For the compound `COc1cccc(C2=CC(c3ccc(N(C)C)cc3)n3ncnc3N2)c1` (configuration not stated), the fold increase came to 7.22 and the viability was found to be 90.9%.
The corresponding values for `O=C(NNc1cc(Cl)ccc1Cl)C1CCC1` are 1.34 and 95.9%.
Consider `N#C/C(=C/c1ccc(N2CCCCC2)o1)C(=O)NCCc1c[nH]c2ccccc12`, for which the fold increase stood at 4.11 and the viability amounted to 93.8%.
`CCN(CC)C(=O)c1ccc2c(c1[N+](=O)[O-])C(=O)c1ccccc1C2=O`: the fold increase is 1.39 and the viability amounted to 84.7%.
For `CC1=C(C(=O)N(C)C)C(c2cccc(Cl)c2)NC(=O)N1` (configuration not stated) the same measures were 1.6 and 88.3%.
In the case of `O=C1NC(=Nc2cccnc2)S/C1=C\c1cccc(F)c1`, the fold increase stood at 1.34 and the viability was 92.7%.
Compound `CCOC(=O)Cc1cc(=O)n(-c2nc3ccccc3s2)[nH]1` showed a fold increase of 1.16.
In the case of `COc1ccc(C(C)(C)C)cc1NC(=O)c1ccoc1C`, the fold increase was 1.34 and the viability stood at 94.5%.
For `Cn1cccc1/C=C1\CC(C(C)(C)C)C/C(=C\c2cccn2C)C1=O` (configuration not stated) the same measures were 4.69 and 86.2%.
For `O=C1NC(c2ccccc2)=N/C1=C/c1ccco1` the same measures were 1.35 and 96.2%.
The corresponding values for `N#CCCN1CCN(S(=O)(=O)c2ccc(S(=O)(=O)NCC3CCCO3)cc2)CC1` (configuration not stated) are 1.33 and 94.2%.
The compound `COc1cc2c(cc1OC)C1=CC(=O)C(=O)N1C(C)(C)C2` came in with a fold increase of 4.59.
As to `O=C(CSc1nnc(Cc2cc(=O)[nH]c(=O)[nH]2)n1-c1ccc(Cl)cc1)NC1CCCC1`, the fold increase came to 1.55 and the viability is 94.3%.
The corresponding values for `N#C/C(C(N)=O)=C1/SC(Cc2ccc(F)cc2)C(=O)N1c1ccccc1` (configuration not stated) are 1.35 and 95.6%.
As for `COc1ccccc1/C=C/C=C1\Oc2c(ccc(O)c2CN2CCN(CCO)CC2)C1=O`, the fold increase is 3.67.
On to `COc1ccc(C2SCC(C(=O)O)N2C(C)=O)cc1OC` (configuration not stated), for which the fold increase was found to be 1.39 and the viability was found to be 101%.
For `COc1cccc2c1C(=O)c1c(O)c3c(c(O)c1C2=O)C[C@@](O)(C(=O)CO)C[C@@H]3O[C@H]1C[C@H](N)[C@H](O)[C@H](C)O1` the same measures were 4.34 and 31.6%.
Turning to `C=CCc1c(C)nc(-c2ccccc2)nc1Nc1ccccc1O`, the fold increase is 1.37 and the viability stood at 82.8%.
With `CCOc1cc(/C=C2/NC(=O)N(CC(=O)Nc3cccc(C)c3)C2=O)ccc1OC`, the fold increase was determined as 1.24.
Turning to `CCS(=O)(=O)C1=NN2C(=N)/C(=C\c3ccc(SCc4ccco4)o3)C(=O)N=C2S1`, the fold increase turned out to be 2.49 and the viability was determined as 91.8%.
`COc1ccc(-c2nn(-c3ccccc3)cc2C(=O)Nc2nc(CC(C)=O)ns2)cc1` registered a fold increase of 1.12.
On to `COc1ccc(OCC(=O)OC2CCCN(C)C2)cc1` (configuration not stated), for which the fold increase stood at 1.45 and the viability is 97%.
`CC(C)OC(=O)c1c(NS(=O)(=O)c2ccccc2)sc2c1CCCC2` returned a fold increase of 1.12.
As for `CCCc1nc(SCC(N)=O)[nH]c(=O)c1CC`, the fold increase stood at 1.34 and the viability was determined as 99.7%.
The corresponding values for `COc1ccccc1NC(=O)NCCN1C(=O)C2C3C=CC(C3)C2C1=O` (configuration not stated) are 1.45 and 107%.
For `N#C/C(=C\c1ccc(N2CCCCC2)o1)C(=O)Nc1cccc(Br)c1`, the fold increase was determined as 5.87 and the viability was 95.6%.
For `Cc1cccc(C=Nc2ccc3c4c(cccc24)CC3)c1O` the same measures were 1.87 and 92.2%.
The corresponding values for `O=C(O)c1cc(N/N=C/c2ccncc2)ccc1Cl` are 1.36 and 98.4%.
For `COc1ccc(C2c3sc(=O)[nH]c3SC3C(=O)N(c4ccccc4)C(=O)C32)cc1` (configuration not stated) the same measures were 1.47 and 96.6%.
Consider `COC(=O)N(NC(=O)C(O)(c1ccccc1)c1ccccc1)c1ccccc1`, for which the fold increase amounted to 1.33 and the viability was 92.3%.
The corresponding values for `CCn1c(SCC(=O)N2CCOCC2)nc2oc3c(Cl)cc(Cl)cc3c(=O)c2c1=O` are 1.42 and 50.7%.
For `CC(C)CNS(=O)(=O)c1ccc(CCC(=O)Nc2ccc3c(c2)OCO3)cc1` the same measures were 1.13 and 93.3%.
In turn, `c1csc(-c2nnsc2-c2nc3ccccc3[nH]2)c1` yielded a fold increase of 1.61.
Turning to `CNc1cc(CSC)nc(SCc2ccc(Cl)c(Cl)c2)n1`, the fold increase was found to be 1.58 and the viability was found to be 92.6%.
For `CC1CCCC2(C1)NC(=S)N(c1ccccc1)N2` (configuration not stated), the fold increase worked out at 1.42 and the viability was determined as 101%.
Turning to `CCCCCCn1c(=O)[nH]c2nc3cc(N)ccc3nc2c1=O`, the fold increase was determined as 9.44 and the viability worked out at 87.9%.
`COc1cc(/C=C2\SC(=Nc3c(C)n(C)n(-c4ccccc4)c3=O)NC2=O)ccc1O`: the fold increase is 1.41.
On to `CCCCN1/C(=C/c2ccc3ccccc3[n+]2CC)Sc2ccccc21`, for which the fold increase is 8.27 and the viability amounted to 38%.
Turning to `N#CC1=C(N)Oc2c(oc(CO)cc2=O)C1c1cccs1` (configuration not stated), the fold increase is 1.35 and the viability was found to be 92.6%.
For `COc1cc(/C=C2\SC(=S)N(N3CCOCC3)C2=O)ccc1O` the same measures were 2.48 and 96.7%.
For `Cc1nn(C)c(C)c1N1C(=O)c2cccc3c(Br)ccc(c23)C1=O` the same measures were 1.99 and 84.8%.
